The supplement of paper PMC11417369
± gives the standard deviation of the averaged measurements. This is one part of the list.

system: PfAP2-G AP2 domain (GST-tagged); assay: gcPBM binding intensity (ln(normalized median fluorescence intensity)); higher = stronger DNA binding
Procedure, shortened: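 In this array assay, P. falciparum DNA-binding domains with a GST tag, expressed in E. coli, were applied for 1 h to primer-extended double-stranded 36-bp intergenic genomic probes and negative controls on an Agilent 4 × 180k array. Bound protein was visualised with Alexa488 anti-GST antibody at 488 nm. Binding intensity is the highest Masliner-normalised natural-log median intensity across replicate spots of either probe orientation.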

| Sequence | gcPBM binding intensity (ln) |
| --- | --- |
| AATGTCAGTATGCGAGGTACACGTATAAAAATTACA [XGTACX_site4109] | 11.3 ± 0.72 |
| TATTATAATAAACCTATACACACATAAATAAATAAA [GTGCAC_negctrl_site627] | 10.01 ± 0.014 |
| TAAAAAATAAAAATTGCACACTAAAAAATTACGCAC [CACACA_site9129] | 9.92 ± 0.071 |
| TATATATATATACCAACACACATACATATATATATA [CACACA_site8530] | 10.3 ± 0.77 |
| ACATATATTGTACATACACACCTATATAAATATCCT [CACACA_site7503] | 11.3 ± 0.73 |
| TATGTATGTATGTATGCATGTGTAACACCTAAATAT [TGCATGCA_site361] | 10.3 ± 0.2 |
| CCATATTTCATTAATGAACACACAAAGAGGTATATA [CACACA_site8431] | 10.24 ± 0.092 |
| AAGTATAAATTAAAATGTACTTATAAAAAAAAAGAA [XGTACX_site7028] | 11.2 ± 0.72 |
| TGTCACATAATTTATGCACACAATGATTATGCTTAA [CACACA_site2358] | 9.975 ± 0.092 |
| ATAAGATAGGCATATACACACATTTATTTACAGATA [CACACA_site5754] | 9.915 ± 0.064 |
| TATATATCCTCTGAATGTACTTGTTTAATAATGTAG [XGTACX_site4332] | 11.2 ± 0.81 |
| TGTGTAATATTCTGTTGTACATAACTCATAAATAAA [XGTACX_site5308] | 11.2 ± 0.83 |
| ATAATATAATATATATGTACACATCCTTTTTGTGTA [XGTACX_site2879] | 11.4 ± 0.76 |
| TAAAAGTAAAAAGGTAGTACCTAAATAATATATATA [XGTACX_site8399] | 11.6 ± 0.98 |
| AATAAATTTAGACACACACACACATATAAATAAATA [CACACA_site6531] | 10.1 ± 0.13 |
| TATACGTGAATGACAGTGCATTTCAAAAGTATAAAA [GTGCAC_site9887] | 10.035 ± 0.007 |
| GAATAAAAAATTGGCACACATAAATATATGGATATA [CACACA_site3047] | 10.3 ± 0.26 |
| TTCAACATATTAAAAAGTACAGAATATAACATTATA [XGTACX_site1361] | 11.3 ± 0.81 |
| ATTATTTATTTATTTTTTTTTTTTTTCTCTTTTCCT [GTGCAC_negctrl_site656] | 9.5 ± 0.071 |
| ATATCATAAATTTATGCATGTTCTTTCTTCAACTCT [TGCATGCA_site992] | 9.76 ± 0.23 |
| TTTGGGTATACACATACATGCATGTCCTTATATATA [TGCATGCA_site84] | 10.7 ± 0.39 |
| ATATTTATATAGATGTGTACATAAATATAATAACAT [XGTACX_site1681] | 11.4 ± 1 |
| ATATATATATATGTTTATTTATTTGAACGATTGTGG [CACACA_negctrl_site828] | 9.95 ± 0.37 |

| Sequence | gcPBM binding intensity (ln) |
| --- | --- |
| GACTCTTAAAAAATTTGTACCCACATAAATAATATA [XGTACX_site4313] | 11.1 ± 0.8 |
| AGTAGGCATATTGGTTGTACAAAAAAATTATGCACC [XGTACX_site8925] | 11.2 ± 0.66 |
| TTTTTTTTTTCTCTCGCACACATTTTTTAAAATGAG [CACACA_site2607] | 10.2 ± 0.21 |
| TATAAAAAATTAAAATTTTTCTTATTTTTTTTAGAT [TGCATGCA_negctrl_site125] | 9.46 ± 0.13 |
| ACCACCAGGAACAAAGCACATTAGGAAAAATAAAAC [XGTACX_negctrl_site228] | 10 ± 0.2 |
| TAGGAATTTAATAAATGTACATATACATAATATATA [XGTACX_site3672] | 10.9 ± 0.49 |
| TTGTATAGTCTGATATGTACATATATATATATATAA [XGTACX_site4307] | 11 ± 0.67 |
| TTGAATAAATTGGAATAAATATAATAAAATAAGGAA [XGTACX_negctrl_site302] | 9.765 ± 0.049 |
| CATACATATATTATTGCACACATATAAAATACCCCC [CACACA_site9292] | 11.2 ± 0.58 |
| TACCAATAAATGAAGGTGCGTGCTTGCCTTTGCTAT | 10.1 ± 0.13 |
| AAAATACCCATTTTAGTACACACTTAAAAAATTATT [CACACA_site8966] | 11.3 ± 0.85 |
| TGGATACACAAAAATTAAAAAAATAAACAAACAAAT [GTGCAC_negctrl_site105] | 10.2 ± 0.13 |
| TCCTTACATTTTAAAACACACAAAAATTAATTGTTA [CACACA_site2313] | 9.94 ± 0.17 |
| AAAAAATAGTGGTATGCATGTCCCTTGTATTTTCTT [TGCATGCA_site587] | 10.2 ± 0.11 |
| TACTTTTATATGAATACACACAGGAATATAAATATG [CACACA_site7647] | 10.3 ± 0.28 |
| GTTTGTTTGTTTGTTCGTACATATATAAAATAAAAA [XGTACX_site4731] | 11.1 ± 0.8 |
| TATAAATATTTTATTGTACACACTTTTTATGAATGA [CACACA_site3136] | 11.5 ± 0.84 |
| AGACCTATGATATATACACACATATATTTATTTATA [CACACA_site6630] | 9.86 ± 0.014 |
| TATATAACTAAAATAACACACATATATAAAAATATA [CACACA_site7416] | 9.815 ± 0.049 |
| ATTATAACACTTATTTCATTTGTATGCCCTTTAAAA [CACACA_negctrl_site955] | 10.18 ± 0.049 |
| GTAGTTATATTAAGGGTGCTTAATTAGATTAAACAA | 10.1 ± 0.28 |
| AGAATAAATAAATATTGTACATATAAAATATATATA [XGTACX_site896] | 11 ± 0.79 |
